In the supplement of paper PMC6135742 one finds total cell number data, which are given here for 73 compounds.

“And” between values parts separate entries of the source, which are not always exact repeats. Equal values may be shown once. Where a name gives a salt, the structure may show the parent alone. ± gives the standard deviation of the averaged measurements. Over roughly 2,600 compounds, “total cell number (DAPI+ nuclei) relative to DMSO vehicle control” has its median near -1.4; the lowest 2% begin near -23. Some of the results follow.

This assay has as its system jimpy (Plp1 jimpy) mouse iPSC-derived oligodendrocyte progenitor cells. Put plainly: total cell number (DAPI+ nuclei) relative to DMSO vehicle control (SDs above negative control mean); higher = more surviving cells. The settings on record: 10 µM; 3 days.
`CC1(C)S[C@@H]2[C@H](NC(=O)C(C(=O)O)c3ccccc3)C(=O)N2[C@H]1C(=O)O` (stereo partly drawn) [Carbenicillin disodium] gave a total cell number of 0.323.

Take `NC(=O)N1C(=O)/C(=C(\O)c2cccs2)c2cc(Cl)ccc21` [Tenidap]: the total cell number was -1.49.

Compound `CC(C)(C)C(=O)C(Oc1ccc(Cl)cc1)n1ccnc1` (stereo not drawn) [Climbazole] returned a total cell number of 12.8.

For the compound `CC(C)N(CCCNC(=O)Nc1ccc(C(C)(C)C)cc1)C[C@H]1O[C@@H](n2cc(Br)c3c(N)ncnc32)[C@H](O)[C@@H]1O`, the total cell number is -7.77.

Regarding `COc1ccc(-c2csc(NC(=O)[C@H]3CCCCN3S(=O)(=O)c3ccc(C)cc3)n2)cc1`, the total cell number stood at 3.68.

For `CC1=C(CC(=O)O)c2cc(F)ccc2/C1=C\c1ccc(S(C)(=O)=O)cc1` [Sulindac sulfone], the total cell number worked out at 2.76.

Turning to `NC(N)=NC(=O)c1nc(Cl)c(N2CCCCCC2)nc1N` [5-(N,N-hexamethylene)amiloride], the total cell number is -2.84.

As for `O=c1sn(-c2cccc3ccccc23)c(=O)n1Cc1ccccc1` [Tideglusib], the total cell number is -3.94.

Consider `Nc1c2c(nc3ccccc13)CCCC2` [9-Amino-1,2,3,4-tetrahydroacridine hydrochloride], for which the total cell number was -2.41.

On to `O=c1cc(-c2ccccc2)oc2cc(O)cc(O)c12` [Chrysin], for which the total cell number came to 0.13.

`O=C(CCCCCN1C(=O)c2cccc3cccc(c23)C1=O)NO` [Scriptaid]: the total cell number was -6.21.

`C=C[C@@]1(C)CC(=O)[C@]2(O)[C@@]3(C)[C@@H](O)CCC(C)(C)[C@@H]3[C@H](O)[C@H](OC(C)=O)[C@@]2(C)O1` [Forskolin]: the total cell number was 1.14 ± 0.27.

As for `CCN(CC)C(=S)SSC(=S)N(CC)CC` [Disulfiram], the total cell number is -4.26.

`Cc1cc(OCCCS(C)(=O)=O)cc(C)c1-c1cccc(COc2ccc3c(c2)OC[C@H]3CC(=O)O)c1`: the total cell number is -2.44.

On to `COc1cc2/c(=N/c3ccc(Br)cc3F)nc[nH]c2cc1OCC1CCN(C)CC1` [Vandetanib (ZD6474)], for which the total cell number was -26.7.

In the case of `CC1(C)O[C@@H]2C[C@H]3[C@@H]4CCC5=CC(=O)C=C[C@]5(C)[C@H]4[C@@H](O)C[C@]3(C)[C@]2(C(=O)CO)O1` [Desonide], the total cell number is 8.21.

As to `O=C(O)c1ccc2c(c1)nc(Nc1cccc(Cl)c1)c1ccncc12` [CX-4945 (Silmitasertib)], the total cell number is -12.6.

As to `c1ccc(-c2ccccn2)nc1` [2,2'-Bipyridyl], the total cell number is -2.01.

As to `COc1ccccc1N1CCN(CCN(C(=O)c2ccc(F)cc2)c2ccccn2)CC1` [p-MPPF dihydrochloride], the total cell number was determined as 1.13.

As to `NCCCCCNCC12CC3CC(CC(C3)C1)C2` [IEM 1754 dihydrobroMide], the total cell number is -2.64.

Consider `O=C(CCCCCCC(=O)Nc1ccccc1)NO` [Vorinostat (SAHA, MK0683)], for which the total cell number was -13.8.

Turning to `CCc1ccc2c(-c3cccc(Cl)c3)nc(=O)n(CC)c2n1`, the total cell number stood at 0.722.

Turning to `CC[C@H]1OC(=O)C[C@@H](O)[C@H](C)[C@@H](O[C@@H]2O[C@H](C)[C@@H](O[C@H]3C[C@@](C)(O)[C@@H](O)[C@H](C)O3)[C@H](N(C)C)[C@H]2O)[C@@H](CC=O)C[C@@H](C)C(=O)/C=C/C(C)=C/[C@@H]1CO[C@@H]1O[C@H](C)[C@@H](O)[C@@H](OC)[C@H]1OC` [Tylosin tartrate], the total cell number was -2.25.

In the case of `O=C(/C=C/c1ccc(O)c(O)c1)c1ccc(O)cc1O` [Butein], the total cell number was -12.4.

With `COC(=O)C1=C(C)NC(C)=C([N+](=O)[O-])C1c1ccccc1C(F)(F)F` (racemic), the total cell number is -1.95.

On to `O=C1NCCc2[nH]c(-c3ccncc3)cc21`, for which the total cell number was -11.1 and -11.3.

With `Cc1ccc(NC(=O)c2cccc(N(C)C)c2)cc1NC(=O)c1ccc(O)cc1`, the total cell number was found to be 4.8.

Consider `COc1ccc(S(=O)(=O)Nc2cccnc2Nc2ccc(O)cc2)cc1`, for which the total cell number is -7.3.

For `C[C@]12C[C@H](O)[C@H]3[C@@H](CCC4=CC(=O)CC[C@@]43C)[C@@H]1CC[C@@H]2C(=O)CO` [Corticosterone], the total cell number came out at 1.97.

With `CCNC(=O)CCC/C=C\C[C@@H]1[C@@H](/C=C/[C@@H](O)CCc2ccccc2)[C@H](O)C[C@@H]1O` [Bimatoprost], the total cell number was -0.772.

Consider `COC(=O)C1=C(C)NC(C)=C(C(=O)OC2CCCN(Cc3ccccc3)C2)C1c1cccc([N+](=O)[O-])c1` (stereo not drawn) [Benidipine HCl], for which the total cell number was -1.12.

For the compound `COC(=O)C1=C(C)NC(C)=C(C(=O)OC2CCCN(Cc3ccccc3)C2)C1c1cccc([N+](=O)[O-])c1` (stereo not drawn) [Benidipine hydrochloride], the total cell number is -1.13.

For the compound `CN1CCN(c2cccc(Nc3nc4c(-c5ccc(S(C)(=O)=O)cc5)cccn4n3)c2)CC1`, the total cell number is -11.1.

Consider `Oc1ccc(O)cc1` [Hydroquinone], for which the total cell number was -6.93.

With `COc1cc2nc(N3CCN(C(=O)C4CCCO4)CC3)nc(N)c2cc1OC` (stereo not drawn) [Terazosin HCl], the total cell number was -1.58.

For `C[C@H]1C[C@H]2[C@@H]3CCC4=CC(=O)C=C[C@]4(C)[C@@]3(Cl)[C@@H](O)C[C@]2(C)[C@@]1(O)C(=O)CO` [Beclomethasone], the total cell number was 2.7.

As to `Cc1nc(N=Nc2ccc(C(=O)O)cc2)c(COP(=O)(O)O)c(C=O)c1O`, the total cell number was -1.5.

As for `CN[C@@H](C)C(=O)N[C@H](C(=O)N1CCC[C@H]1C(=O)Nc1snnc1-c1ccccc1)C1CCCCC1`, the total cell number is -4.08.

With `CC(C)(O)CC[C@@H](O)[C@](C)(O)[C@H]1CC[C@@]2(O)C3=CC(=O)[C@@H]4C[C@@H](O)[C@@H](O)C[C@]4(C)[C@H]3CC[C@]12C` [20-Hydroxyecdysone], the total cell number is -0.544.

Take `CNC(=O)c1nn(C)c2c1C(C)(C)Cc1cnc(Nc3ccc(N4CCN(C)CC4)cc3)nc1-2`: the total cell number is -10.9.

As to `CC1CCN=C(N)S1` (racemic) [(±)-AMT hydrochloride], the total cell number is 0.458.

For the compound `O=C1c2ccccc2C(=O)c2c(NCCc3ccc(O)cc3)ccc(NCCc3ccc(O)cc3)c21`, the total cell number was -6.59.

Turning to `FC(F)(F)c1ccc(/C=C/c2nc(COc3ccc(CCCCn4ccnn4)cc3)co2)cc1` [Mubritinib (TAK 165)], the total cell number is -7.9.

Regarding `CN(C)CCCOc1nn(Cc2ccccc2)c2ccccc12` [Benzydamine HCl], the total cell number was -5.52.

For the compound `O=C1c2c(O)cc(O)cc2OC(c2ccc(O)c(O)c2)C1O` (stereo not drawn) [Taxifolin (Dihydroquercetin)], the total cell number is 0.892.

For the compound `OC[C@@H](O)[C@@H](O)[C@H](O)[C@@H](O)CO` [Sorbitol], the total cell number is -0.984.

Regarding `Cn1cc(C(=O)OCC2CCN(CCNS(C)(=O)=O)CC2)c2ccccc21`, the total cell number came out at 0.409.

`CC(=O)OCC(=O)[C@@]1(O)CC[C@H]2[C@@H]3CCC4=CC(=O)CC[C@]4(C)[C@H]3C(=O)C[C@@]21C` [Cortisone 21-acetate]: the total cell number is -1.13.

As to `CC(=O)OCC(=O)[C@@]1(O)CC[C@H]2[C@@H]3CCC4=CC(=O)CC[C@]4(C)[C@H]3C(=O)C[C@@]21C` [Cortisone acetate], the total cell number is -1.83.

Turning to `CNCC[C@H](Oc1ccc(C(F)(F)F)cc1)c1ccccc1` [S-(+)-Fluoxetine hydrochloride], the total cell number was -4.94.

For the compound `NC(=O)c1ncn([C@@H]2O[C@H](CO)[C@@H](O)[C@H]2O)c1N` [Acadesine], the total cell number was -1.19.

Consider `CC1=C(/C=C/C(C)=C/C=C/C(C)=C/C(=O)Nc2ccc(O)cc2)C(C)(C)CCC1` [Retinoic acid p-hydroxyanilide], for which the total cell number was -11.2.

On to `CC(=O)Oc1cc(C(C)C)c(OCCN(C)C)cc1C` [Moxisylyte hydrochloride], for which the total cell number was -0.472.

On to `O=C(O)C(Cc1ccccc1[N+](=O)[O-])=NNc1nc(-c2ccc(Cl)c(Cl)c2)cs1` (mixture of isomers), for which the total cell number amounted to 0.206.

For `CC1=C(C(=O)OC2CCCCC2)C(c2ccc([N+](=O)[O-])cc2)C2=C(CC(C)(C)CC2=O)N1` (stereo not drawn), the total cell number was -14.4.

With `C[C@@H]1C(=O)O[C@H]2C[C@@]34[C@H]5C[C@@H](C(C)(C)C)[C@]36[C@@H](OC(=O)[C@@H]6O)O[C@@]4(C(=O)O5)[C@]21O` [Ginkgolide A], the total cell number is -2.51.

As for `CC(c1cc2ccccc2s1)N(O)C(N)=O` (stereo not drawn) [Zileuton], the total cell number is -0.0169.

As to `COc1cc(C)c(/C=C/C(C)=C/C=C/C(C)=C/C(=O)O)c(C)c1C` [Acitretin], the total cell number is -3.85.

On to `CC(C)(F)C[C@H](N[C@@H](c1ccc(-c2ccc(S(C)(=O)=O)cc2)cc1)C(F)(F)F)C(=O)NC1(C#N)CC1` [Odanacatib (MK-0822)], for which the total cell number is -3.2.

Regarding `CN(C)CCC=C1c2ccccc2C=Cc2ccccc21` [Cyclobenzaprine hydrochloride], the total cell number is -6.02.

On to `O=C1c2cccc(O)c2C(=O)c2c(O)cc(CO)cc21` [Aloe-emodin], for which the total cell number was found to be 1.92.

With `CN(C)CCc1c[nH]c2ccc(C[C@H]3COC(=O)N3)cc12` [Zolmitriptan], the total cell number was -1.08.

Take `O=C1C(=O)N(Cc2ccc(Cl)c(Cl)c2)c2ccccc21` [Apoptosis Activator 2]: the total cell number is -4.28.

As for `O=C(NC1CCOCC1)c1ccc(-c2cc(-c3c[nH]nc3-c3ccccn3)ccn2)cc1`, the total cell number was -0.803.

Take `NS(=O)(=O)c1cc2c(cc1Cl)NCNS2(=O)=O` [Hydrochlorothiazide]: the total cell number was -0.552 ± 0.41.

Compound `C[N+]1(C)CCC(=C(c2ccccc2)c2ccccc2)CC1` [Diphemanil Methylsulfate] had a total cell number of 6.3.

`COc1cc(/C=C/C(=O)O)ccc1O` [Ferulic Acid] showed a total cell number of 0.511.

For `C/C(=N\NC(=S)N1CCC1)c1ccccn1`, the total cell number was -11.9.

Regarding `O=c1[nH]c(=O)n([C@H]2C[C@H](O)[C@@H](CO)O2)cc1F` [Floxuridine], the total cell number is -5.68.

As to `CS(=O)(=O)Nc1ccc([N+](=O)[O-])cc1Oc1ccccc1` [Nimesulide], the total cell number is -0.902 ± 0.91.

Turning to `CCn1cc(C(=O)O)c(=O)c2cc(F)c(N3CCNC(C)C3)c(F)c21` (stereo not drawn) [Lomefloxacin HCl], the total cell number is -1.57.

`CCn1cc(C(=O)O)c(=O)c2cc(F)c(N3CCNC(C)C3)c(F)c21` (stereo not drawn) [Lomefloxacin hydrochloride]: the total cell number was -1.22.

Regarding `NC(=O)c1cc[n+](CC2=C(C(=O)O)N3C(=O)[C@@H](NC(=O)C(c4ccccc4)S(=O)(=O)[O-])[C@H]3SC2)cc1` (stereo partly drawn) [Cefsulodin sodium salt hydrate], the total cell number was -0.409.
